From the supplement of paper PMC7125110
± gives the standard error. Variants at the floor of the assay are shown more often than the library holds them.

B1: glmS ribozyme (parent)
chain: AUAAAAGCGCCAGAACUACAGAAAUGUAGUUGACGAGGAGGAGGUUUAUCGAAUUUUCGGCGGAUGCCUCCAAA

What was measured:
Settings in all cases: with glucosamine-6-phosphate
glucosamine-6-phosphate [1] = variants of: B1; assay: self-cleavage kobs at 640 uM GlcN6P; higher = faster cleavage; RNA array
Method in brief: (§1)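 In situ transcription by E. coli RNA polymerase produced barcoded ribozyme variants on sequenced MiSeq chips, and a hybridised Cy3 probe tracked them at 37 °C. Glucosamine-6-phosphate was flowed in at 40 μM to 10 mM in HEPES/KCl/Mg(OAc)2 buffer. kcat and KM were taken from weighted Michaelis–Menten fits of kobs values from exponential decay fits.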

glucosamine-6-phosphate [2] = variants of: B1; assay: self-cleavage kobs at 2500 uM GlcN6P; higher = faster cleavage; RNA array
Method in brief: as §1

glucosamine-6-phosphate [3] = variants of: B1; assay: self-cleavage kobs at 160 uM GlcN6P; higher = faster cleavage; RNA array
Method in brief: as §1

glucosamine-6-phosphate [4] = variants of: B1; assay: self-cleavage kobs at 10000 uM GlcN6P; higher = faster cleavage; RNA array
Method in brief: as §1

Variant	self-cleavage kobs at 640 uM GlcN6P (glucosamine-6-phosphate [1]) [s⁻¹]	self-cleavage kobs at 2500 uM GlcN6P (glucosamine-6-phosphate [2]) [s⁻¹]	self-cleavage kobs at 160 uM GlcN6P (glucosamine-6-phosphate [3]) [s⁻¹]	self-cleavage kobs at 10000 uM GlcN6P (glucosamine-6-phosphate [4]) [s⁻¹]
C16A G51U C67G	0.000109 ± 4.2e-05	–	–	–
C16A G51U U69G	9.84e-05 ± 4.1e-05	0.000199 ± 9.6e-05	–	–
C16A G62A U65A	< 1e-05	< 1e-05	–	–
C16A G66A	0.000223 ± 5e-05	–	6.8e-05 ± 3.1e-05	–
C16A U69G	7.48e-05 ± 1.5e-05	–	–	–
C16G A33C U57A G63U G66U C67G	< 1e-05	–	–	–
C16G A33U U46G G51A C68U C71A	< 1e-05	–	–	–
C16G A39C	0.000184 ± 2.9e-05	0.000427 ± 6.6e-05	4.38e-05 ± 9.6e-06	0.000629 ± 7.2e-05
C16G A39G G51U U55C G59C	< 1e-05	–	–	–
C16G A53C G59A	< 1e-05	< 1e-05	–	–
C16G G29C A33U A48C	< 1e-05	–	< 1e-05	–
C16G G40C G51C C70G	< 1e-05	–	–	–
C16G G40U U49G G60A C70U	< 1e-05	< 1e-05	–	–
C16G G41A U46G	< 1e-05	–	–	–
C16G G41A U55A	< 1e-05	–	–	–
C16G G51U U56C C70U	< 1e-05	–	< 1e-05	–
C16G G60A	< 1e-05	–	< 1e-05	–
C16G U30C A36U U45G A52U	< 1e-05	–	–	–
C16G U30C C50U	< 1e-05	–	–	–
C16G U31C C61U C67U	< 1e-05	–	< 1e-05	–
C16G U46A	9.94e-05 ± 2.2e-05	0.000146 ± 2.2e-05	4.2e-05 ± 2e-05	0.000213 ± 4.4e-05

Variant	self-cleavage kobs at 640 uM GlcN6P (glucosamine-6-phosphate [1]) [s⁻¹]	self-cleavage kobs at 2500 uM GlcN6P (glucosamine-6-phosphate [2]) [s⁻¹]	self-cleavage kobs at 160 uM GlcN6P (glucosamine-6-phosphate [3]) [s⁻¹]	self-cleavage kobs at 10000 uM GlcN6P (glucosamine-6-phosphate [4]) [s⁻¹]
C16U A36C G40U G62A G63A	< 1e-05	–	–	–
C16U A39G G66A	0.00662 ± 0.0015	–	–	–
C16U A53G U54C	0.00193 ± 0.00028	0.00421 ± 0.00075	0.000683 ± 0.00013	–
C16U G21U G38A A53C	< 1e-05	–	–	–
C16U G38C C70G	< 1e-05	< 1e-05	–	–
C16U G38U A39G A42U C67U	< 1e-05	–	< 1e-05	–
C16U G40C U49C G51A	< 1e-05	< 1e-05	< 1e-05	–
C16U G51C	< 1e-05	< 1e-05	< 1e-05	–
C16U G60U C68A	< 1e-05	–	–	–
A18C U46A A52C C61U C67U	< 1e-05	< 1e-05	–	< 1e-05
G21U U47G	0.00247 ± 0.00049	–	–	–
G29A A33C C50U	< 1e-05	–	–	–
G29A A33C G38C A53C	< 1e-05	< 1e-05	< 1e-05	–
G29A A36G C58A	< 1e-05	< 1e-05	< 1e-05	–
G29A A39C C50G	< 1e-05	–	–	–
G29A A64C U65A C68U	< 1e-05	–	–	–
G29A C34U G51C C67U	< 1e-05	–	< 1e-05	–
G29A C70A	4.17e-05 ± 1.5e-05	–	–	–
G29A G37C A53C G62C	< 1e-05	< 1e-05	–	–
G29A G66U	6.51e-05 ± 2e-05	6.95e-05 ± 1.9e-05	–	–
G29A U31C G44U	< 1e-05	< 1e-05	–	–

Variant	self-cleavage kobs at 640 uM GlcN6P (glucosamine-6-phosphate [1]) [s⁻¹]	self-cleavage kobs at 2500 uM GlcN6P (glucosamine-6-phosphate [2]) [s⁻¹]	self-cleavage kobs at 160 uM GlcN6P (glucosamine-6-phosphate [3]) [s⁻¹]	self-cleavage kobs at 10000 uM GlcN6P (glucosamine-6-phosphate [4]) [s⁻¹]
G29A U47C	8.17e-05 ± 2.3e-05	–	–	–
G29A U47G A53U G60C	< 1e-05	–	–	–
G29A U69A	7.98e-05 ± 2.2e-05	3.9e-05 ± 9.8e-06	–	–
G29C A42G G43U G51C G62C	< 1e-05	–	–	–
G29C A48C G62U	< 1e-05	< 1e-05	< 1e-05	–
G29C A48G G59C	< 1e-05	< 1e-05	< 1e-05	< 1e-05
G29C C58A U65G	< 1e-05	–	–	–
G29C C67A	0.000128 ± 1.9e-05	0.000163 ± 3.2e-05	5.79e-05 ± 1.3e-05	0.000363 ± 5.2e-05
G29C G35U A36C	< 1e-05	< 1e-05	–	–
G29C G37A G51A	< 1e-05	–	–	–
G29C G40C	3.65e-05 ± 1.5e-05	7.4e-05 ± 1.6e-05	–	8.84e-05 ± 1.8e-05
G29C G43A A52G G66U	< 1e-05	–	–	–
G29C G43A G63A	< 1e-05	< 1e-05	–	–
G29C G44A A64C	< 1e-05	< 1e-05	–	–
G29C G62U G66U	< 1e-05	–	–	–
G29C U49C A64U	< 1e-05	–	–	–
G29U A36C	< 1e-05	–	–	–
G29U A39G U56A	0.001 ± 0.00039	0.00181 ± 0.00055	8.2e-05 ± 2.8e-05	–
G29U A42C G44U U54A C68A	< 1e-05	< 1e-05	< 1e-05	–
G29U C58A C68A	0.000121 ± 3.2e-05	3.43e-05 ± 1.5e-05	–	–
